From the supplement of paper PMC3724861
Some of the results follow.

System: T1, Caupolican (Caup) homeodomain DNA-binding domain
T1 sequence: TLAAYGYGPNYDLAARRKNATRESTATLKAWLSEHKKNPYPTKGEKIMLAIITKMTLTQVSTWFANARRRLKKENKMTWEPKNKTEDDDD
Assay: PBM E-score (8-mer, recovered from the published 9-mer minima) (E-score (dimensionless, -0.5 to 0.5)); Drosophila protein; higher = stronger relative binding preference, active = 0.31 or more
Method in brief: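 Caup's homeodomain DNA-binding domain (residues 214-303) was made by in vitro transcription and translation and applied at 100 nM to custom-designed protein binding microarrays. Each value is an enrichment score that gives relative binding preference for a short DNA word, with higher meaning stronger. The 8-mer values were recovered from published 9-mer scores, each of which was the minimum of its two constituent 8-mer scores. A cutoff of 0.31 marks candidate sites.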

Row | Sequence | PBM E-score
1 | CGGAGAAA | inactive: -0.135
2 | AACCTGCC | inactive: -0.0741
3 | CCAGGTAC | inactive: 0.0541
4 | GCACATAA | inactive: 0.0651
5 | CCCCTTCG | inactive: -0.25
6 | CAGCGCCG | inactive: -0.268
7 | ACAAAATC | inactive: 0.107
8 | ACTTGATG | inactive: 0.15
9 | CGAGTAGA | inactive: -0.0986
10 | AAGGGACG | inactive: -0.128
11 | ACAAAAGT | inactive: 0.149
12 | TAAAGGCA | inactive: 0.0348
13 | CAAAGCCG | inactive: -0.114
14 | GGGAATCA | inactive: 0.0611
15 | GTGGCCAA | inactive: -0.0292
16 | GGCCTTTA | inactive: -0.148
17 | GATGGGGA | inactive: -0.0926
18 | GAAGTAGC | inactive: -0.113
19 | AACCACAT | ≥ 0.212
20 | CGCTAGGA | inactive: -0.157
21 | CCTTAAGG | inactive: -0.154
22 | CGCATACG | inactive: -0.109
23 | GGGTTGAA | inactive: -0.00186
24 | ATCAGTCC | inactive: -0.143
25 | ACCTGCGT | ≥ -0.0018

Row | Sequence | PBM E-score
26 | CCGCGTGC | inactive: -0.135
27 | CATACCAC | inactive: 0.0536
28 | AGGTTCAT | inactive: -0.094
29 | CGTAACTC | inactive: -0.0401
30 | AGAAGACC | inactive: -0.152
31 | CACATGGC | inactive: -0.0837
32 | GATTAAAA | inactive: 0.166
33 | AAGTTACA | inactive: 0.261
34 | CTACACGC | inactive: 0.21
35 | CTGTACTA | inactive: 0.156
36 | ACAAATGG | inactive: 0.193
37 | AGCTATCC | inactive: -0.126
38 | AGTCGCGA | inactive: -0.0131
39 | TAGTGTGA | inactive: 0.108
40 | ATGCCAAG | inactive: 0.0126
41 | ACGGGTTA | inactive: -0.00854
42 | CCAACTCG | inactive: -0.0676
43 | CCCGAGGC | inactive: -0.273
44 | CTATGGCC | inactive: -0.0994
45 | TCCATAGA | inactive: 0.00334
46 | GTACACTA | inactive: 0.208
47 | CCTGCCGA | inactive: -0.156
48 | CTTGTGTC | inactive: 0.173
49 | TCACAAAA | inactive: 0.0812
50 | CCCGGGAC | inactive: -0.249

Row | Sequence | PBM E-score
51 | CGTTGTCC | inactive: 0.219
52 | ACACACCC | inactive: 0.0969
53 | ACGTATCC | inactive: -0.0744
54 | TGGATAAA | inactive: 0.0192
55 | CCCTGGAA | inactive: -0.216
56 | AGCACGGA | ≥ 0.0654
57 | CATTATTA | inactive: 0.16
58 | ACCTCGAG | inactive: -0.0337
59 | ACCTCACA | inactive: -0.0256
60 | CACCGCGG | inactive: -0.116
61 | CGGACCGA | inactive: -0.123
62 | CCTTAAAC | inactive: -0.0653
63 | CAAAGGCG | inactive: -0.00513
64 | ATTGTGAA | inactive: 0.144
65 | AGACATTA | inactive: 0.201
66 | GAGTCTCA | inactive: -0.127
67 | TGGGGACA | inactive: 0.0617
68 | GGATACAA | inactive: 0.261
69 | CCTATGAA | inactive: -0.0468
70 | CAGCCCCA | inactive: -0.179
71 | GCAAGGTA | inactive: 0.0505
72 | CGACTCAG | inactive: -0.115
73 | AAATCCCT | inactive: -0.0439
74 | CAAGATCA | inactive: 0.107
75 | ACCCCACC | inactive: -0.126

Row | Sequence | PBM E-score
76 | AGGATCAA | inactive: 0.0579
77 | ATAATCTG | inactive: 0.0677
78 | ATACCCCA | inactive: -0.0662
79 | CTTTCTAA | inactive: 0.023
80 | ACTTACTA | inactive: 0.119
81 | CCGGATAC | inactive: 0.00065
82 | AATACATC | inactive: 0.294
83 | GGCCATAA | inactive: -0.0563
84 | AATCTGGA | inactive: -0.0251
85 | AGCGGCTC | inactive: -0.209
86 | AATACGAC | inactive: 0.165
87 | CCATTAGG | inactive: -0.198
88 | GTCGTTGA | inactive: 0.0744
89 | AACATTCA | inactive: 0.158
90 | GGCGGCCC | inactive: -0.352
91 | CGAACGAG | inactive: 0.109
92 | CGAGAGAG | inactive: -0.0532
93 | ACAACAGC | inactive: 0.214
94 | AGCCCACG | inactive: -0.183
95 | CTGCTTAC | inactive: 0.0437
96 | ATAAGACA | inactive: 0.239
97 | TGGGAACA | inactive: 0.215
98 | CAACTTCA | inactive: 0.115
99 | AAAGGGCA | ≥ -0.0465
100 | AGTTCTGA | inactive: 0.0233

Row | Sequence | PBM E-score
101 | AGGTAATC | inactive: 0.0989
102 | ATTCCGGG | inactive: -0.133
103 | AACGTGGA | inactive: -0.015
104 | AAATGCAA | inactive: 0.0939
105 | CGACGATA | inactive: 0.0107
106 | AGACGAAG | inactive: -0.0336
107 | GTCCTATA | inactive: 0.035
108 | CATGAAGA | inactive: 0.0832
109 | AAGGGAGT | inactive: -0.0767
110 | GTGTCTAA | inactive: 0.215
111 | ACGACTTG | inactive: 0.0967
112 | AAAGTCCT | inactive: -0.0942
113 | ACGCAAAG | inactive: -0.0941
114 | GCAAACAC | inactive: 0.202
115 | CAAATCTA | inactive: 0.155
116 | GAGTCTCC | inactive: -0.141
117 | CCCTCGGC | inactive: -0.231
118 | CTGTTCTC | inactive: 0.0891
119 | ATTCCTGC | inactive: 0.069
120 | AAGTTTTC | inactive: 0.0107
121 | CGACAAAG | inactive: 0.1
122 | CGCGAACC | inactive: -0.161
123 | AAAAGAAA | inactive: 0.0427
124 | GCAATCCC | inactive: -0.15
125 | AGGTAACA | active: 0.327

Row | Sequence | PBM E-score
126 | GAATGAAC | inactive: 0.105
127 | ACAGTCGA | inactive: -0.0106
128 | AAGCAGCG | inactive: 0.0172
129 | GCACTACC | inactive: -0.0936
130 | CAGAACGC | inactive: -0.135
131 | GAACCCGA | inactive: -0.0939
132 | CTAAGTCC | inactive: -0.186
133 | GCACGCGA | inactive: -0.0177
134 | CTGAGTTC | inactive: -0.0316
135 | GGGGTGAC | inactive: -0.0866
136 | CTCACTCC | inactive: -0.192
137 | TACCCAAA | inactive: 0.00835
138 | CCGCAAAC | inactive: -0.0254
139 | AGCTCAAG | inactive: -0.135
140 | ACTTGTAT | active: 0.391
141 | GGGCAACC | inactive: -0.165
142 | ACACTATG | inactive: 0.16
143 | GCGCGAGC | inactive: -0.279
144 | CCACCGAG | inactive: -0.107
145 | CTTGAAAG | inactive: -0.0583
146 | CTATAGGC | inactive: -0.157
147 | AGCATCAG | inactive: -0.0319
148 | ATAGTCCA | ≥ 0.137
149 | CCCCATAG | inactive: -0.12
150 | GTGGACAC | inactive: 0.126

Row | Sequence | PBM E-score
151 | CCGATTGC | inactive: 0.0367
152 | CATATTTC | inactive: 0.129
153 | CGTTCCCA | inactive: -0.122
154 | CAACAATG | active: 0.323
155 | ATCAATCC | inactive: 0.0425
156 | AAATATTA | inactive: 0.256
157 | ACGAGGTA | inactive: 0.06
158 | CCGTCGAA | inactive: -0.108
159 | GGGCACAC | inactive: -0.156
160 | CACAGGCC | inactive: -0.0917
161 | GAGCGGGA | inactive: -0.184
162 | TCATTGAA | inactive: 0.133
163 | CTGGAATC | inactive: 0.00521
164 | CATTTCGA | inactive: 0.0622
165 | CATCTGGC | inactive: -0.134
166 | AAATTATA | inactive: 0.088
167 | TAGAATAA | inactive: 0.174
168 | CATAGCCC | inactive: -0.0328
169 | ATAAACTG | inactive: 0.0488
170 | CTTTAACC | inactive: -0.0171
171 | AACTATGC | inactive: 0.0512
172 | AAGCCAAA | inactive: -0.0704
173 | ACGTTGAG | inactive: 0.0174
174 | CCGGAAGG | inactive: -0.241
175 | CCTGAGTA | inactive: 0.00143

Row | Sequence | PBM E-score
176 | AATTAAGC | inactive: 0.0235
177 | CTTGGTGA | inactive: -0.106
178 | GAATAAGA | inactive: 0.0109
179 | CTGGCCGC | ≥ -0.177
180 | CTCAGTAA | inactive: -0.00161
181 | AGCGATGG | inactive: -0.192
182 | AAGACTGA | inactive: 0.0567
183 | CCGAAAAC | inactive: -0.0316
184 | GAGACTAC | inactive: -0.0245
185 | ACATACAG | inactive: 0.247
186 | GTACTAAC | inactive: 0.192
187 | CATCAAGG | inactive: -0.0295
188 | CCAATTAC | inactive: 0.119
189 | GTCGCTGA | inactive: 0.0108
190 | GACCACAA | inactive: -8e-05
191 | AATGGTAG | inactive: 0.131
192 | CTCCGTGA | inactive: -0.0581
193 | ACCTACAG | inactive: 0.0545
194 | GCATCTTA | inactive: 0.0716
195 | AACCCCCC | inactive: -0.293
196 | ATGCCCCC | inactive: -0.24
197 | CGCAGAGC | inactive: -0.14
198 | CTAACTGC | inactive: -0.0985
199 | GTCCTTGA | inactive: 0.0017
200 | AAAAGCGA | inactive: 0.00198

Row | Sequence | PBM E-score
201 | CATCGTGC | inactive: 0.0673
202 | AACCGTCG | inactive: -0.0221
203 | CCTATGCG | inactive: -0.0298
204 | ATCCCGCA | ≥ -0.0491
205 | CGGAGCCA | inactive: -0.23
206 | CCATTACA | inactive: 0.259
207 | GAGGGCAC | inactive: -0.183
208 | GCTTAGGA | inactive: -0.0742
209 | ATTATAAG | inactive: 0.0375
210 | CAATATCG | inactive: 0.0696
211 | AGCCCCCC | inactive: -0.338
212 | ACGGCAAA | inactive: 0.0766
213 | ACCCTTTA | inactive: -0.00288
214 | GTGAATGA | inactive: 0.1
215 | CAGACTGC | inactive: -0.0434
216 | AAGGTACG | inactive: 0.0801
217 | ACTTTGGG | inactive: -0.0934
218 | GCCGGGCA | inactive: -0.327
219 | AGAGATAG | inactive: -0.0252
220 | ATACTTGA | inactive: 0.203
221 | AACCCCTA | inactive: -0.118
222 | GCCAGCGC | inactive: -0.273
223 | ACAATTAC | inactive: 0.251
